# According to the supplement of paper PMC8728848:
# The other results are listed elsewhere or left out.
# Experiments:
# Assay in all cases: glycan array binding signal (z-score within array); higher = stronger binding
# Settings in all cases: glycan notation: IUPAC condensed, linker removed
# [1] = molecular target: Gal(b1-4)GlcNAc(b1-3)Gal(b1-4)GlcNAc(b1-3)Gal(b1-4)GlcNAc(b1-2)Man(a1-3)[Gal(b1-4)GlcNAc(b1-3)Gal(b1-4)GlcNAc(b1-3)Gal(b1-4)GlcNAc(b1-2)Man(a1-6)]Man(b1-4)GlcNAc(b1-4)GlcNAc
# Outline: (§1)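 Glycan array binding is given as a within-array Z-score, which can be read as non-binding when negative. The arrays, 3228 of them, came from the Consortium for Functional Glycomics database and were retained only where the protein sequence was available. Z-scores were averaged across arrays of the same protein sequence at different concentrations or buffers and across linkers.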
# [2] = molecular target: Gal(b1-4)GlcNAc(b1-3)Gal(b1-4)GlcNAc(b1-3)Gal(b1-4)GlcNAc(b1-2)Man(a1-3)[Gal(b1-4)GlcNAc(b1-3)Gal(b1-4)GlcNAc(b1-3)Gal(b1-4)GlcNAc(b1-2)Man(a1-6)]Man(b1-4)GlcNAc(b1-4)[Fuc(a1-6)]GlcNAc
# Outline: as §1
# [3] = molecular target: Gal(b1-4)GlcNAc(b1-3)Gal(b1-4)GlcNAc(b1-3)Gal(b1-4)GlcNAc(b1-2)[Gal(b1-4)GlcNAc(b1-3)Gal(b1-4)GlcNAc(b1-3)Gal(b1-4)GlcNAc(b1-6)]Man(a1-6)[Gal(b1-4)GlcNAc(b1-3)Gal(b1-4)GlcNAc(b1-3)Gal(b1-4)GlcNAc(b1-2)Man(a1-3)]Man(b1-4)GlcNAc(b1-4)[Fuc(a1-6)]GlcNAc
# Outline: as §1
# [4] = molecular target: Gal(b1-4)GlcNAc(b1-3)Gal(b1-4)GlcNAc(b1-3)Gal(b1-4)GlcNAc(b1-3)Gal(b1-4)GlcNAc(b1-2)Man(a1-3)[Gal(b1-4)GlcNAc(b1-3)Gal(b1-4)GlcNAc(b1-3)Gal(b1-4)GlcNAc(b1-3)Gal(b1-4)GlcNAc(b1-2)Man(a1-6)]Man(b1-4)GlcNAc(b1-4)GlcNAc
# Outline: as §1
# [5] = molecular target: Gal(b1-4)GlcNAc(b1-3)Gal(b1-4)GlcNAc(b1-3)Gal(b1-4)GlcNAc(b1-3)Gal(b1-4)GlcNAc(b1-2)Man(a1-3)[Gal(b1-4)GlcNAc(b1-3)Gal(b1-4)GlcNAc(b1-3)Gal(b1-4)GlcNAc(b1-3)Gal(b1-4)GlcNAc(b1-2)Man(a1-6)]Man(b1-4)GlcNAc(b1-4)[Fuc(a1-6)]GlcNAc
# Outline: as §1
# [6] = molecular target: Gal(b1-4)GlcNAc(b1-3)Gal(b1-4)GlcNAc(b1-3)Gal(b1-4)GlcNAc(b1-3)Gal(b1-4)GlcNAc(b1-2)[Gal(b1-4)GlcNAc(b1-3)Gal(b1-4)GlcNAc(b1-3)Gal(b1-4)GlcNAc(b1-3)Gal(b1-4)GlcNAc(b1-6)]Man(a1-6)[Gal(b1-4)GlcNAc(b1-3)Gal(b1-4)GlcNAc(b1-3)Gal(b1-4)GlcNAc(b1-3)Gal(b1-4)GlcNAc(b1-2)Man(a1-3)]Man(b1-4)GlcNAc(b1-4)[Fuc(a1-6)]GlcNAc
# Outline: as §1
# [7] = molecular target: Gal(b1-4)GlcNAc(b1-3)Gal(b1-4)GlcNAc(b1-3)Gal(b1-4)GlcNAc(b1-3)Gal(b1-4)GlcNAc(b1-3)Gal(b1-4)GlcNAc(b1-2)Man(a1-3)[Gal(b1-4)GlcNAc(b1-3)Gal(b1-4)GlcNAc(b1-3)Gal(b1-4)GlcNAc(b1-3)Gal(b1-4)GlcNAc(b1-3)Gal(b1-4)GlcNAc(b1-2)Man(a1-6)]Man(b1-4)GlcNAc(b1-4)GlcNAc
# Outline: as §1
# [8] = molecular target: Gal(b1-4)GlcNAc(b1-3)Gal(b1-4)GlcNAc(b1-3)Gal(b1-4)GlcNAc(b1-3)Gal(b1-4)GlcNAc(b1-3)Gal(b1-4)GlcNAc(b1-2)Man(a1-3)[Gal(b1-4)GlcNAc(b1-3)Gal(b1-4)GlcNAc(b1-3)Gal(b1-4)GlcNAc(b1-3)Gal(b1-4)GlcNAc(b1-3)Gal(b1-4)GlcNAc(b1-2)Man(a1-6)]Man(b1-4)GlcNAc(b1-4)[Fuc(a1-6)]GlcNAc
# Outline: as §1
# [9] = molecular target: Gal(b1-4)GlcNAc(b1-3)Gal(b1-4)GlcNAc(b1-3)Gal(b1-4)GlcNAc(b1-3)Gal(b1-4)GlcNAc(b1-3)Gal(b1-4)GlcNAc(b1-2)[Gal(b1-4)GlcNAc(b1-3)Gal(b1-4)GlcNAc(b1-3)Gal(b1-4)GlcNAc(b1-3)Gal(b1-4)GlcNAc(b1-3)Gal(b1-4)GlcNAc(b1-6)]Man(a1-6)[Gal(b1-4)GlcNAc(b1-3)Gal(b1-4)GlcNAc(b1-3)Gal(b1-4)GlcNAc(b1-3)Gal(b1-4)GlcNAc(b1-3)Gal(b1-4)GlcNAc(b1-2)Man(a1-3)]Man(b1-4)GlcNAc(b1-4)[Fuc(a1-6)]GlcNAc
# Outline: as §1
# [10] = molecular target: Gal(b1-4)GlcNAc(b1-3)Gal(b1-4)GlcNAc(b1-3)Gal(b1-4)GlcNAc(b1-3)Gal(b1-4)GlcNAc(b1-3)Gal(b1-4)GlcNAc(b1-3)Gal(b1-4)GlcNAc(b1-2)Man(a1-3)[Gal(b1-4)GlcNAc(b1-3)Gal(b1-4)GlcNAc(b1-3)Gal(b1-4)GlcNAc(b1-3)Gal(b1-4)GlcNAc(b1-3)Gal(b1-4)GlcNAc(b1-3)Gal(b1-4)GlcNAc(b1-2)Man(a1-6)]Man(b1-4)GlcNAc(b1-4)GlcNAc
# Outline: as §1
# [11] = molecular target: Gal(b1-4)GlcNAc(b1-3)Gal(b1-4)GlcNAc(b1-3)GalNAc
# Outline: as §1
# [12] = molecular target: Gal(b1-4)GlcNAc(b1-3)Gal(b1-4)GlcNAc(b1-3)[Gal(b1-4)GlcNAc(b1-3)Gal(b1-4)GlcNAc(b1-6)]GalNAc
# Outline: as §1
# [13] = molecular target: Gal(b1-4)GlcNAc(b1-3)Gal(b1-4)GlcNAc(b1-6)[Gal(b1-3)]GalNAc
# Outline: as §1
# [14] = molecular target: Gal(b1-4)GlcNAc(b1-3)Gal(b1-4)[Fuc(a1-3)]GlcNAc(b1-3)Gal(b1-4)[Fuc(a1-3)]GlcNAc
# Outline: as §1
# [15] = molecular target: Gal(b1-4)GlcNAc(b1-3)GalNAc
# Outline: as §1
# [16] = molecular target: Gal(b1-4)GlcNAc(b1-3)[Fuc(a1-3)GlcNAc(b1-6)]Gal(b1-4)Glc
# Outline: as §1
# [17] = molecular target: Gal(b1-4)GlcNAc(b1-3)[Gal(b1-4)GlcNAc(b1-6)]Gal(b1-4)GlcNAc
# Outline: as §1
# [18] = molecular target: Gal(b1-4)GlcNAc(b1-3)[GlcNAc(b1-6)]Gal(b1-4)GlcNAc
# Outline: as §1
# [19] = molecular target: Gal(b1-4)GlcNAc(b1-6)Gal(b1-4)GlcNAc
# Outline: as §1
binder,measurement,setting,value
PX15618A-bth-503-24-503 (Bacteroides thetaiotaomicron) (protein) NKSEDKLSGDDFWAQGNETNAEAFLLSIYNSFRNATMSQRPFLTYSGDMRCAPITAYSTGDKYVAYLANNDMGELRNTYPDDARGGLIMQWDVFYTAIQDANILLAEIDKVPGMDELKRSRFKAEAIFMRSLSYFFIVRAFGDVPYYTNAYNEAPLPRTNMVIVLQNCLADLQPLLDDDPGAEVLPWSYSSYSSKGIRASRGSVIALMMHINLWLVQFDAQNKEQYYRNVVSLGEELERNNGAYSLLDINRSSVIFAGGSDEGLFEIAQNINFNEIFMMNAKFSDNVSYSCLNKSMPLFCYSGDYLMTLFPMYEDDARKELWFDEKIYSTSVSSSAPKEIKKFWNIDTYGNGTITSNSGNQIVFRYAGALLLYAEALAALGTNDTKACELLNRVRNRAHASEINTSGSELMDAIFWERCRELIGEGHYYYDLVRTGKVYNRNYCMNPMTRTNFNVGAWTWPIHRNALKNNTQIGLNLFWE,glycan array binding signal (z-score),[1],1.77
same,glycan array binding signal (z-score),[2],0.321
same,glycan array binding signal (z-score),[3],0.532
same,glycan array binding signal (z-score),[4],0.837
same,glycan array binding signal (z-score),[5],0.864
same,glycan array binding signal (z-score),[6],0.445
same,glycan array binding signal (z-score),[7],2.83
same,glycan array binding signal (z-score),[8],-0.115
same,glycan array binding signal (z-score),[9],1.51
same,glycan array binding signal (z-score),[10],2.95
same,glycan array binding signal (z-score),[11],-0.08
same,glycan array binding signal (z-score),[12],0.447
same,glycan array binding signal (z-score),[13],-0.114
same,glycan array binding signal (z-score),[14],-0.207
same,glycan array binding signal (z-score),[15],-0.749
same,glycan array binding signal (z-score),[16],0.176
same,glycan array binding signal (z-score),[17],-0.074
same,glycan array binding signal (z-score),[18],-0.428
same,glycan array binding signal (z-score),[19],0.161
